# In the supplement of paper PMC11417369:
# ± gives the standard deviation of the averaged measurements. The list shows a part of the results.
# Test system: PfAP2-G AP2 domain (GST-tagged)
# Assay: gcPBM binding intensity (ln(normalized median fluorescence intensity)); higher = stronger DNA binding
# Summary of the method: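 After 1 h on an Agilent 4 × 180k array of primer-extended double-stranded 36-bp intergenic genomic probes and negative controls, bound GST-tagged P. falciparum DNA-binding domains were detected with Alexa488 anti-GST antibody and scanned at 488 nm. The domains had been expressed in E. coli, and binding took place in 1× PBS with 1% milk, 0.2 mg/ml BSA, 0.5% salmon testes DNA and 0.03% Triton X-100. Binding intensity is the highest Masliner-normalised natural-log median intensity across replicate spots of either probe orientation.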
row,Sequence,gcPBM binding intensity (ln)
1,TTCTTAATACAAATATGTACATATATATATATATAT [XGTACX_site757],11.1 ± 0.61
2,AATAGAAAAAAAAAATGTACAAAATGTTTATAAAAA [XGTACX_site4635],10.7 ± 0.28
3,TCATTTTAAGGAAAAAGTACAAAATAATATGTTCCT [XGTACX_site1903],11 ± 0.65
4,GATGTGTAAATAAGGATATATAACAATCAACAAAAC [XGTACX_negctrl_site494],10.2 ± 0.11
5,TGAATATGTAAATGCACACCAAAAAAAAAAAAAAAA [CACACA_site3566],9.96 ± 0.58
6,CAATATAAAAGACACACACACAAACATATATTTATA [CACACA_site7697],10.01 ± 0.099
7,TATTGAAAGTGAATTATAACATTAAAAATATATATA [TGCATGCA_negctrl_site566],9.61 ± 0.15
8,ATAATGTAAAATAAATGTACGCAATATATAAAAAAT [XGTACX_site5747],11.5 ± 0.73
9,GAAGGAAATAAATCAACACACATATATTATAGATAT [CACACA_site7095],9.85 ± 0.071
10,TATCTTCATATATGGTGTACAGATTTTTTTTTTTTT [XGTACX_site5545],11.5 ± 0.84
11,ATAAAATTATTATATACATGCAAAATTAATATATTG [TGCATGCA_site507],9.835 ± 0.078
12,TGAATAAATAAACACACACACATATATATATCTGTA [CACACA_site4184],9.74 ± 0.028
13,AAAATAAAAAAAATGAATTAGTTAAATGAAAAATAA [CACACA_negctrl_site1294],9.56 ± 0.25
14,TTTCTTTTTTTGGGCACACAAAATTTTCTCATTTTA [CACACA_site68],10.6 ± 0.14
15,ATTATATAATAATGCATGCACCTTATTTTCATTTCA [GTGCAC_site9922],9.915 ± 0.021
16,TTTTTATTGTTATACTTATATTATTTTATGATTAAA [XGTACX_negctrl_site262],9.87 ± 0.13
17,ATAAAAATCAAAAAAAATACATAATAGTAATAATAA [GTGCAC_negctrl_site481],9.695 ± 0.092
18,GTTATACATTTGAAAAGTACTCATGATTTTTTTTTT [XGTACX_site8177],11.2 ± 0.7
19,AATATTCAATATAAAGTGCATTATTGTGCCCCTAAT,10.7 ± 0.51
20,AAAATTAAAAAAATATGTACTTATGGGTAACATCAT [XGTACX_site5548],11.3 ± 0.82
21,CTGATATATTATTTATCTGAATATATTAATATGTAT [GTGCAC_negctrl_site82],9.635 ± 0.021
22,AAATAGAAAAAATATACACACACTTATTAAATAAAA [CACACA_site3313],9.945 ± 0.049

row,Sequence,gcPBM binding intensity (ln)
1,AAATAATAAAGTATAACACACATATTTATTTATATA [CACACA_site7822],9.695 ± 0.021
2,TATGCAAATTAATAATGTACGAAATATTTATAATTT [XGTACX_site2324],10.7 ± 0.47
3,AAAAGGAACGGACACACACACATATATATATATATA [CACACA_site5894],10.9 ± 0.79
4,TAATATAATCTGAGTGCACACAAATAAATAAACATA [CACACA_site8032],10.4 ± 0.3
5,AGGTTATATATGAACAAAAATAAAATATTCATAGGC [TGCATGCA_negctrl_site46],9.885 ± 0.064
6,AATAAATTAGAAGGATGTACTTTGTTTAATATAGAG [XGTACX_site1943],11 ± 0.57
7,ATATGTAAAATGAAGATACATACATACATACATACA [CACACA_negctrl_site715],10.5 ± 0.26
8,TATTTTATATTATCATGTACAAAAAAAAAGAAAAGA [XGTACX_site5379],10.9 ± 0.43
9,ATAAATAATTAGAATTGTACAAAAATTATATATATG [XGTACX_site5107],10.9 ± 0.56
10,TATATAAAAAGTAATTGTACATATATATATATATAT [XGTACX_site7953],10.9 ± 0.68
11,ATATATTTATATAAATGTACACGTGAATATATAATA [XGTACX_site1166],11.3 ± 0.88
12,TTTATATTCTTTTTTTAACACACAAAAAAAATAAAA [CACACA_site8574],10.2 ± 0.44
13,TCTATTAATGAATATACACACATTATATATATATAT [CACACA_site5410],10.1 ± 0.15
14,ATGTTATAAAATATATGTACATATTTATATAAAATA [XGTACX_site5766],11.3 ± 0.71
15,ATATTATATATATGATGTACTAAATATATTATTATG [XGTACX_site1703],10.9 ± 0.59
16,AATTATACGAAATAAAACTTAATAGACAAAAAATTA [CACACA_negctrl_site1384],9.965 ± 0.021
17,GTAATTTAAATAACAAGTACTAATGTGGATAAGCAG [XGTACX_site1163],11.1 ± 0.56
18,ACATATGAATATTTTTGTACGTATATTGTTATTCTT [XGTACX_site4720],11.3 ± 0.49
19,AAAAAAAAAAAACACACACACACATACAAAATATAT [CACACA_site1448],9.81 ± 0.11
20,TTTTTTTTTATTATCATGCACACATTTTTTTTTTTT [CACACA_site2254],10 ± 0.14
21,GTATATTTAAATAAAAGTACGTAAAGATATATTTAA [XGTACX_site8087],11.2 ± 0.71
22,ATAATATGCAATATTACACACAATTCATCATTTTTT [CACACA_site7477],9.7 ± 0.18

row,Sequence,gcPBM binding intensity (ln)
1,TAGAAGCATCATTTTACACACATGCAAATGTAAACT [CACACA_site6973],10 ± 0.32
2,AACAAAATAAAACACACACACAAATGTACATATATA [CACACA_site2424],11.2 ± 0.57
3,TTTTGCGTAGCAACGAGGTTTTTAAAAATGTAACCA [GTGCAC_negctrl_site691],10.2 ± 0.17
4,ATTTTGTATTGACGCTGTACAAACATTAATATAATA [XGTACX_site2496],10.7 ± 0.4
5,AATAATAAAAAATACGCACACATGTAAACGTATGTT [CACACA_site3336],10.41 ± 0.099
6,GGCGATATAGAACTACGTACTTATACAAATTATAAT [XGTACX_site2307],11.2 ± 0.74
7,ACACATAAATGTATATATATATAAATATATGTATGT [CACACA_negctrl_site1532],9.6 ± 0.11
8,CCTTTTAAGAGTTGCACACGTACAAAAAAAAAAAAA [CACACA_site3492],11.3 ± 1.1
9,TGTATTAATAAAAATACACACATCATATTATATAAA [CACACA_site3534],9.97 ± 0.28
10,TATATATATATATATAAGCTTATAATAAAACAAAAA [XGTACX_negctrl_site568],10.1 ± 0.52
11,ATAGCAATAATGGAAAGTACAAAAAAACTTGTTATA [XGTACX_site8518],10.8 ± 0.38
12,TATATATGTATATGTGTGCACCTTATTTCTTTTATT [GTGCAC_site9513],10.4 ± 0.35
13,TATGTATTATCAAAAAGTACTAAAAAAAAATAATAA [XGTACX_site4703],11.2 ± 0.67
14,TTATAATTTTTGAGCACACACAAGCATATATATATA [CACACA_site1798],10.4 ± 0.45
15,AATCCTTACAGACACACACACACGAATAAATAAAAA [CACACA_site480],10.4 ± 0.42
16,ATAAATGTTATGCATACACACTTTATACCTATTTAA [CACACA_site5967],9.975 ± 0.035
17,TTATAATATATTACAAGTTCATTCATATAATATGTT [CACACA_negctrl_site1695],9.92 ± 0.11
18,ATCTCTTAAATTTTACGTACTTATTTTATCTTCTTA [XGTACX_site8877],11.2 ± 0.67
19,TGAAAAAAAAAATGCACACGCATACATATAATATGT [CACACA_site641],10.08 ± 0.085
20,AAACATAAATATGAGAGTACAAAAAATATTATGAAT [XGTACX_site151],11 ± 0.6
21,TATTTTTATATATATACACACTTACAGATATATATT [CACACA_site5905],10 ± 0.042
22,AATAAATACATACATACATGCATACATATATCTCAA [TGCATGCA_site1040],10.03 ± 0.021

row,Sequence,gcPBM binding intensity (ln)
1,AAAAATAAAATATATATATATATATATATATATATA [CACACA_negctrl_site58],9.82 ± 0.66
2,TATATATATTTTAAATGTACTTATAAATTACCACTT [XGTACX_site5673],11.3 ± 0.8
3,AGAAAGGATATAAGCGTAGCTATATCATAAAAAATG [GTGCAC_negctrl_site332],9.82 ± 0.071
4,AAATAAAATTTTTGTTGTACTTATTTTTAGTATACT [XGTACX_site4254],11.5 ± 0.81
5,AATATTTACAGACATGCGCACACATAAATAAATAAT [CACACA_site8760],10.5 ± 0.29
6,AAAGGGGAGATATGAACACACAAAAAAAAAATATAT [CACACA_site7378],10 ± 0.32
7,GTATATATATATTTATGTACTTACCTACATAATTAT [XGTACX_site4435],11.2 ± 0.73
8,GATATGATGAGATTGATATTCATAAGAGGATTAATG [GTGCAC_negctrl_site515],9.71 ± 0.18
9,TGTATGTATGTATTATTTGTTATTTTAATTTTTTTG [TGCATGCA_negctrl_site256],10.36 ± 0.085
10,TATAATAAAATATGTACACACATACACCCATATATA [CACACA_site4808],11.4 ± 0.88
11,ACAAGTAATTAAGAGTGTACATAACTATAAATCCAA [XGTACX_site5215],11.3 ± 0.79
12,GGACAAGTTAAACGCACACAAATATATACCCCCATA [CACACA_site4996],11.2 ± 0.64
13,AAAAATGATATGAGTTGTACATAAGTAAGAATTATT [XGTACX_site7089],11.2 ± 0.73
14,TAAAAACGATTTTTTGCACACACATAATAAGCAGAA [CACACA_site3870],10.3 ± 0.19
15,TTACCTCTTTGAAATATACACACTAATCATATCAAC [CACACA_site8778],10.06 ± 0.057
16,TTTTTGCTATTCTATTATATATATAATATATTTTAC [CACACA_negctrl_site262],9.915 ± 0.064
17,TGTTCAGTAGGGCACACACACAACAAAATAAAAAAA [CACACA_site378],10.6 ± 0.63
18,GATGTGATGTATTTGGTATTTTTCGATGTTGGTAGG [CACACA_negctrl_site355],10.2 ± 0.2
19,TATTATATATCAAAATGTACATTAATTTGAGTAATT [XGTACX_site5434],10.9 ± 0.55
20,AAGACATTTTTTAAGGTGCTTTGGAAAAAGGAGTAT [GTGCAC_site9816],10.1 ± 0.11
21,GAGATTTATTTATGTGCACACTAGAACAATTGGATC [CACACA_site2090],10.6 ± 0.2
